Measurements published in PubChem BioAssay AID504332 (National Center for Advancing Translational Sciences (NCATS), 2011).
The whole screen tested about 350,000 compounds, of which about 31,000 (8.9%) were called active. This list was built around the results that the source calls inconclusive (neither active nor inactive); the mix of calls is not that of the screen. Calls come from the whole dose curve; as a rule, active = well fitted inhibition curve with a large enough effect; inconclusive = small, poorly fitted or top-dose-only effect; inactive = no such curve, though single readings can be large or run the other way. Potencies of inconclusive entries are doubtful fits and often do not repeat.

Target: Histone-lysine N-methyltransferase EHMT2 (Homo sapiens) (UniProt Q96KQ7)
Test: qHTS Assay for Inhibitors of Histone Lysine Methyltransferase G9a; note: nearly all actives have a fitted effect of over 75% in size
Conditions: G9a H3K9 monomethylation, AlphaScreen, 2 h; activity, negative = inhibition: at 59 µM (top of the series) unless noted
Procedure, shortened: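 Readings reflect AlphaScreen signal from monomethyl-H3K9 antibody detection. HMT at 20 nM; substrate b-H3K9 500 nM; cofactor SAM 20 uM; 2 h RT reaction; compounds tested as titrations in qHTS with 15 min preincubation.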
% is set by controls: 0 for no effect and ±100 for the full control effect; potency is the fitted concentration of half-maximal effect; tags give direction and shape of the fitted curve.

UniProt Q96KQ7, sequence (Q96KQ7 whole entry, looked up): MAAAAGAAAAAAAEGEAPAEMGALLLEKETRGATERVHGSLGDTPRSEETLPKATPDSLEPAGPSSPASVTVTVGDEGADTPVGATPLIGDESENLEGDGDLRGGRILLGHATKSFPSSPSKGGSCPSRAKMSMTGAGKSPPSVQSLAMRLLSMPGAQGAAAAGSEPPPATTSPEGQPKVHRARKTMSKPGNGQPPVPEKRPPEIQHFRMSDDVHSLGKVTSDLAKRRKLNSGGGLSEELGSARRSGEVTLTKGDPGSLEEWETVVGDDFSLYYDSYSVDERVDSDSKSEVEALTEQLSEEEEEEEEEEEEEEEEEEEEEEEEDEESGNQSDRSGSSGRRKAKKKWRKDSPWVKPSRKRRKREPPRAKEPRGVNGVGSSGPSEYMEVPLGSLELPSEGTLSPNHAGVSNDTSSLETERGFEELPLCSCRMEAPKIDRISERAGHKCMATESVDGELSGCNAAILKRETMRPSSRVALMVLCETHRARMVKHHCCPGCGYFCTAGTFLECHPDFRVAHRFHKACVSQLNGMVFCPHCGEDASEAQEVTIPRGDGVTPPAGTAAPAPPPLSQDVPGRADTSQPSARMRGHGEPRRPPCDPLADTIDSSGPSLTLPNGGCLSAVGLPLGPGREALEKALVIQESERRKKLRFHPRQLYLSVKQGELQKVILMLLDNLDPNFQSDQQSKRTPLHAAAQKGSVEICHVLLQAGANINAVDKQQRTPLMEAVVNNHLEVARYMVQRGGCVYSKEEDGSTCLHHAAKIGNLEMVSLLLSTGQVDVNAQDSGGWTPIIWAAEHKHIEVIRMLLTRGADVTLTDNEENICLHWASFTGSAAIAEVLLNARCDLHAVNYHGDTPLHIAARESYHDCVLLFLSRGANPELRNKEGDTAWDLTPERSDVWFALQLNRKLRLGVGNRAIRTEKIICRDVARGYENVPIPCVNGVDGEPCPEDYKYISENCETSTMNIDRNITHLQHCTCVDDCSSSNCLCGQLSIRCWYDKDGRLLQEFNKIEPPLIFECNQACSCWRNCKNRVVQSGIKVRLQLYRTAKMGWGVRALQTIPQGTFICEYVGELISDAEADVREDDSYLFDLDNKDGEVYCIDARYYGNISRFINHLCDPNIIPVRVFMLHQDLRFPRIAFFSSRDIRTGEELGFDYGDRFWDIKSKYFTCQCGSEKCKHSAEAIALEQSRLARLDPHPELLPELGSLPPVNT

| Compound | activity, negative = inhibition | Potency |
| --- | --- | --- |
| COc1cccc(/C=C/C(=O)OCC(=O)NCC2CCCCC2)c1OC | inactive: 8.53% [at 12.7 µM] |  |
| COc1cc(-c2[nH]ncc2CN2CCN(c3cccc(C)n3)CC2)cc(OC)c1OC |  | inconclusive: 70.8 µM [inhibitor, partial curve, poor fit] |
| COc1ccc(N=c2scc(-c3ccc(OC)cc3)n2CCO)cc1 |  | inconclusive: 10 µM [inhibitor, partial curve, poor fit] |
| Cc1c(-n2cc(C(=O)c3cc(F)ccc3O)cc(C#N)c2=O)c(=O)n(-c2ccccc2)n1C | inactive: 29.7% |  |
| Cc1cc(N/C(=N/S(=O)(=O)c2ccc(F)cc2)c2ccccc2)n(-c2ccccc2)n1 |  | inconclusive: 44.7 µM [inhibitor, partial curve] |
| Cc1ccc(/C=N/c2sc3c(c2C(N)=O)CCCC3)o1 |  | inconclusive: 35.5 µM [inhibitor, partial curve, poor fit] |
| CCc1ccc2c(CN(CC)Cc3nc4ccccc4c(=O)[nH]3)cc(=O)oc2c1 |  | active: 3.55 µM |
| CCOc1cc(C2Nc3cccc4cccc(c34)N2)ccc1O |  | active: 10 µM |
| CN(Cc1ccccc1)c1ncnc2onc(-c3ccc(F)cc3)c12 | inactive: 6.18% |  |
| O=C(CN1C(=O)C2CCCCC2C1=O)Nc1cccc([N+](=O)[O-])c1 (stereo not drawn) |  | inconclusive: 28.2 µM [inhibitor, partial curve, poor fit] |
| O=S(=O)(c1ccccc1)c1nc(Cc2ccccc2)oc1N1CCOCC1 |  | active: 7.08 µM |
| Cc1cccc(NC(=O)c2cc(=O)[nH]c3ccccc23)c1 |  | inconclusive: 89.1 µM [inhibitor, single point] |
| Cc1ccc(-c2ccc(CCC(=O)O)o2)cc1 | inconclusive: -97.1% [inhibitor] |  |
| OC(COc1ccccc1)CN1CCN(Cc2ccc3c(c2)OCO3)CC1 (stereo not drawn) | inconclusive: -54.1% [inhibitor] |  |
| COc1ccc(Oc2ncc3nc(-c4cc(F)cc(F)c4)c(=O)n(C[C@H]4CCCO4)c3n2)cc1 | inactive: 14.1% [at 0.501 µM] |  |
| COc1ccc(S(=O)(=O)NCCC(=O)OCc2cc(=O)oc3cc(C)ccc23)cc1[N+](=O)[O-] |  | inconclusive: 70.8 µM [inhibitor, partial curve, poor fit] |
| Nc1nc2ccccc2n1/N=C/c1ccc2c(c1)OCO2 |  | inconclusive: 89.1 µM [inhibitor, single point] |
| O=C(CSc1nnc(-c2ccc(F)cc2)o1)Nc1ccc(S(=O)(=O)N2CCCCCC2)cc1 | inactive: -1.21% [at 102 µM] |  |
| Cc1cc(Nc2cccc(C(F)(F)F)c2)nc2ccc(NC(=O)c3ccc(=O)[nH]c3)cc12 | inactive: -0.704% |  |
| Cc1cccc(C(=O)NC2CCCCCCC2)c1 | inactive: 6.75% [at 102 µM] |  |
| COc1ccc(C(=O)N2CCN=C2c2ccccc2)cc1OC | inactive: 0.724% [at 102 µM] |  |
| COc1ccccc1NC(=O)C(Cc1ccccc1)NS(=O)(=O)c1ccc2c(c1)c(=O)n(C)c(=O)n2C (stereo not drawn) |  | inconclusive: 15.8 µM [inhibitor, partial curve] |
| Cc1cc(C)c(NC(=S)NCC2CCN(C(C)c3ccccc3)C2)c(C)c1 (stereo not drawn) |  | active: 10 µM |
| O=C(Nc1ccc2oc(-c3ccc4ccccc4c3)nc2c1)c1ccccc1F | inactive: -7.29% |  |
| O=C(NC1CCSc2ccccc21)c1cc([N+](=O)[O-])ccc1N1CCOCC1 (stereo not drawn) |  | active: 56.2 µM |

| Compound | activity, negative = inhibition | Potency |
| --- | --- | --- |
| O=C1/C(=C/c2ccccc2)SC(=S)N1C1CCS(=O)(=O)C1 (stereo not drawn) |  | inconclusive: 44.7 µM [inhibitor, single point] |
| CNC(=O)c1ccsc1NC(=O)C1CCN(S(=O)(=O)c2ccc(Cl)s2)CC1 | inactive: -38.5% [at 102 µM] |  |
| COc1ccccc1/C=C1\SC(=S)N(Nc2nc(C)cc(C)n2)C1=O |  | inconclusive: 44.7 µM [inhibitor, partial curve, poor fit] |
| O=C(COc1ccccc1)Nc1nnc(S(=O)(=O)N2CCCC2)s1 |  | active: 8.91 µM |
| COc1cc(CNCc2ccc(OC)c(OC)c2OC)cc(OC)c1 |  | inconclusive: 2.24 µM [inhibitor, partial curve, poor fit] |
| Cn1c(=O)c2c(SCc3ccccn3)nc(C3CC3)nc2n(C)c1=O |  | inconclusive: 44.7 µM [inhibitor, partial curve, poor fit] |
| COc1ccc(CC(=O)Nc2c(C(=O)N3CCN(c4ncccn4)CC3)oc3ccccc23)cc1OC | inactive: 2.6% |  |
| CC1(C)Cc2c(C#N)c(SCc3nc4ccccc4[nH]3)nc(N3CCOCC3)c2CO1 |  | active: 39.8 µM |
| CCC(=O)NC(=S)Nc1ccccc1C(=O)OC |  | inconclusive: 28.2 µM [inhibitor, single point] |
| CC1=CC(C)(C)Nc2ccc(C)cc21 |  | active: 44.7 µM |
| CCN(CC)S(=O)(=O)c1ccc(Cl)c(NC(=O)CCCCl)c1 |  | inconclusive: 56.2 µM [inhibitor, partial curve, poor fit] |
| CC(=O)Nc1nc(S(=O)(=O)c2ccc(C)cc2)c(Cl)s1 |  | inconclusive: 28.2 µM [inhibitor, single point] |
| S=C(c1ccc(N2CCCC2)cc1)N1CCCCC1 |  | inconclusive: 31.6 µM [inhibitor, single point] |
| COc1ccc(NC(=O)COc2ccc(S(=O)(=O)NC3CCCCC3)cc2)cc1OC | inactive: 0.891% |  |
| COc1ccc(NC(=S)N(Cc2ccccn2)Cc2ccccc2Cl)cc1 |  | inconclusive: 4.47 µM [inhibitor, partial curve, poor fit] |
| Cc1cccc(C)c1NC(=O)c1sc(N)nc1-c1ccccc1 | inactive: 5.8% [at 102 µM] |  |
| COc1cc(/C=N/NC(=O)CCN2CCN(C)CC2)cc2c1OCO2 | inactive: 37.9% [at 102 µM] |  |
| CCOCCCn1c(SCC(=O)Nc2ccc(C)cc2)nc2ccccc2c1=O | inactive: 10.2% |  |
| Cc1cc(C)n(C(C)CC(=O)NCc2ccc(N(C)C)cc2)n1 (stereo not drawn) |  | inconclusive: 31.6 µM [inhibitor, single point] |
| COc1ccc(NS(=O)(=O)c2ccc(NC(C)=O)cc2)cc1OC | inactive: -48.3% |  |
| CCC(O)CC(C(=O)NNc1ccccc1)C(=O)NNc1ccccc1 (stereo not drawn) |  | active: 7.94 µM |
| Cc1ccc(SC/C(O)=C(\C#N)c2nc3ccccc3s2)cc1 |  | inconclusive: 31.6 µM [inhibitor, single point] |
| Cc1sc2nc(CSC(C)C(=O)N(C)CC(=O)Nc3ccccc3C(F)(F)F)[nH]c(=O)c2c1C (stereo not drawn) |  | inconclusive: 44.7 µM [inhibitor, partial curve, poor fit] |
| CCOC(=O)c1c(-c2cccs2)csc1NC(=O)CN(CC)CC | inactive: -9.07% [at 12.7 µM] |  |
| Cc1c(C(=S)Nc2ccccc2)cnn1-c1ccc([N+](=O)[O-])cc1 |  | inconclusive: 25.1 µM [inhibitor, partial curve, poor fit] |

| Compound | activity, negative = inhibition | Potency |
| --- | --- | --- |
| CN(CC(=O)Nc1cccc(F)c1)C(=O)c1ccc2c(c1)OCCO2 |  | active: 10 µM |
| O=C(CSc1nccn1Cc1ccc(Cl)cc1)Nc1ccc2c(c1)OCCO2 |  | inconclusive: 22.4 µM [inhibitor, single point] |
| COc1cccc(C(c2c(O)cc(C)n(Cc3ccco3)c2=O)N2CCN(c3ccccc3)CC2)c1 (stereo not drawn) |  | inconclusive: 25.1 µM [inhibitor, single point] |
| COc1ccccc1N1CCN(c2ccc(N3C(=O)CCC3=O)cc2[N+](=O)[O-])CC1 |  | inconclusive: 79.4 µM [inhibitor, single point] |
| CCS(=O)(=O)c1cc([N+](=O)[O-])c(Sc2ccccc2NC(C)=O)s1 |  | active: 1.12 µM |
| O=C(Nc1ccc(F)cc1)C(=O)c1c(O)[nH]c2ccc([N+](=O)[O-])cc12 |  | active: 31.6 µM |
| Cc1ccc(-n2ncc3c(NCCCn4ccnc4)ncnc32)c(C)c1 |  | inconclusive: 50.1 µM [inhibitor, partial curve, poor fit] |
| COc1ccc(C(=O)c2oc3ccc(OC)cc3c2N)cc1 | inactive: -4.05% [at 102 µM] |  |
| O=C(c1ccccc1Br)N1CCN(c2ccc([N+](=O)[O-])c(N3CCOCC3)c2)CC1 | inactive: -33.4% [at 102 µM] |  |
| CN(C)c1ccc(N2C(=O)CSC2=S)cc1 |  | inconclusive: 39.8 µM [inhibitor, single point] |
| COc1cccc(C2=CC(c3cccc(OC)c3OC)n3nnnc3N2)c1 (stereo not drawn) |  | active: 10 µM |
| CCn1c(SCC(=O)N2CCN(c3ccccc3F)CC2)nnc1-c1ccoc1C |  | inconclusive: 1.12 µM [inhibitor, full curve, poor fit] |
| Cc1nc(NCCc2ccccc2)sc1C(=O)O | inactive: -8.61% [at 102 µM] |  |
| COc1ccc(CNC(=O)C(C)n2ccc3cc(S(=O)(=O)N4CCCC4)ccc32)cc1OC (stereo not drawn) |  | inconclusive: 3.98 µM [inhibitor, partial curve, poor fit] |
| O=C(CSc1nc2cc(Cl)ccc2s1)Nc1cccc(S(=O)(=O)N2CCOCC2)c1 |  | inconclusive: 79.4 µM [inhibitor, partial curve, poor fit] |
| ONC(=Nc1ccccc1)C(=Nc1ccccc1)NO |  | inconclusive: 39.8 µM [inhibitor, single point] |
| Cc1ccc(NC(=O)CSc2nc(O)cc(=O)n2-c2ccc(C)cc2)cc1 |  | inconclusive: 100 µM [inhibitor, single point] |
| CCc1ccccc1S(=O)(=O)Cc1ccc(C(=O)N2CCN(c3ccccn3)CC2)o1 |  | active: 79.4 µM |
| CC(C(=O)O)c1ccc2c(c1)Cc1cccnc1O2 (stereo not drawn) |  | inconclusive: 1.41 µM [inhibitor, partial curve, poor fit] |
| Cn1cnc([N+](=O)[O-])c1Oc1ccccc1 | inactive: 5.95% [at 102 µM] |  |
| COc1ccc2[nH]cc(C(=O)CCl)c2c1 |  | inconclusive: 20 µM [inhibitor, single point] |
| CC1CCC(NS(=O)(=O)c2ccc(Cl)nc2)CC1 (stereo not drawn) |  | active: 50.1 µM |
| COc1ccc(NC(=O)CC2SC(=NCC3CCCO3)NC2=O)c([N+](=O)[O-])c1 (stereo not drawn) |  | inconclusive: 50.1 µM [inhibitor, partial curve, poor fit] |
